Laboratory results: PubChem BioAssay AID1745845 (National Center for Advancing Translational Sciences (NCATS), 2022)
In all, about 360,000 compounds went through this assay and about 2,600 (0.72%) were called active. This list was built around the results that the source calls inconclusive (neither active nor inactive); the mix of calls is not that of the screen. Calls come from the whole dose curve; as a rule, active = well fitted inhibition curve with a large enough effect; inconclusive = small, poorly fitted or top-dose-only effect; inactive = no such curve, though single readings can be large or run the other way. Potencies of inconclusive entries are doubtful fits and often do not repeat. Where a structure was tested more than once in an assay, its records may differ in their call.

assay: Primary qHTS for Inhibitors of ATXN expression; settings: HEK-293 ATXN2-luciferase reporter, luminescence, 24 h; activity change, negative = inhibition: at 57 µM (top of the series); note: nearly all actives have a fitted effect of over 55% in size
Summary of the method: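 ATXN2-luciferase reporter cells (luciferase flanked by upstream and downstream ATXN2 gene portions) were treated 24 h at 37 °C with compounds at up to 57 uM. SteadyGlo luminescence gave expression; GF-AFC fluorescence gave viability.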
% is set by controls: 0 for no effect and ±100 for the full control effect; potency is the fitted concentration of half-maximal effect; tags give direction and shape of the fitted curve.

Structure (SMILES) | activity change, negative = inhibition | Potency
Cc1ccc([C@H]2N[C@]3(CCCN(Cc4ccc(Br)cc4)C3=O)[C@H]3C(=O)N(C)C(=O)[C@@H]23)cc1 | inactive: -13.3% | –
COC(=O)[C@@]1(Cc2ccc(F)cc2)[C@H]2c3cc(C(=O)N4CCCC4)n(CCc4ccc(OC)c(Br)c4)c3C[C@H]2CN1C(=O)c1ccccc1 | inactive: -26.2% | –
COC(=O)CCn1nnc(-c2ccc(C(C)C)cc2)n1 | – | active: 0.501 µM
COc1ccc(-c2csc(NC(=O)C3=NN(c4ccccc4)C(=O)CC3)n2)cc1 | – | inconclusive: 20 µM [inhibitor, single point]
COc1ccc(NC(=O)Cc2ccc(Cl)cc2)cc1S(=O)(=O)N1CCCCC1 | – | inconclusive: 35.5 µM [inhibitor, partial curve, poor fit]
O=C(O)CSc1nnc(Cc2ccccc2)n1-c1ccccc1 | inactive: -4.39% | –
CC(=O)Nc1ccc(S(=O)(=O)N2CCC(C(=O)Nc3nccs3)CC2)cc1 | inactive: 12.4% | –
S=c1nc(-c2ccco2)[nH][nH]1 | inactive: 0.61% | –
O=C(Nc1cccc(S(=O)(=O)NC2=NCCC2)c1)c1cn(-c2ccccc2)nc1-c1ccc(F)cc1 | inactive: -22.9% | –
Cc1nc(-c2ccc(C(F)(F)F)cc2)sc1C(=O)NN | – | active: 15.8 µM
CCOC(=O)c1c(C)sc2c1N(C(=O)CCl)c1cc(Cl)ccc1S2 | – | inconclusive: 17.8 µM [inhibitor, partial curve, poor fit]
CCCCN1C(=O)Cc2c1nc(N)c1c(N)nc(N(CCC)CCC)c(C#N)c21 | inactive: -8.09% | –
Cc1cccc(CN2C(=O)c3ccccc3Sc3ccc(C(=O)N4CCCC4)cc32)c1 | – | inconclusive: 10 µM [inhibitor, partial curve, poor fit]
Cn1c(=O)[nH]c(=O)c2[nH]c(N(Cc3ccccc3)Cc3ccccc3)nc21 | – | inconclusive: 35.5 µM [inhibitor, single point]
O=C(CCl)Nc1ccccc1C(=O)c1ccccc1 | – | inconclusive: 18.9 µM [inhibitor, partial curve, poor fit]
C=CC(=O)Nc1cccc(Oc2nc(Nc3ccc(N4CCN(C)CC4)cc3)ncc2Cl)c1 | – | inconclusive: 30.6 µM [inhibitor, partial curve]
NC(=O)CC(NC(=O)Cc1ccc(Cl)cc1)c1ccc(NC2CCCCC2)c([N+](=O)[O-])c1 (configuration not stated) | – | inconclusive: 25.1 µM [inhibitor, single point]
O=c1c(C=Nc2ccc(Oc3ccccc3)cc2)c[nH]n1-c1cccc(Cl)n1 | – | inconclusive: 39.8 µM [inhibitor, single point]
Cc1cc([N+](=O)[O-])nn1CC(=O)N/N=C/c1ccc(O)cc1O | – | inconclusive: 39.8 µM [inhibitor, single point]
COc1cccc(OCCCCn2c(-c3ccc(Cl)cc3)nc3ccccc3c2=O)c1 | inactive: 5.93% | –
CC[C@@H]1C(c2ccc(F)cc2)=NN(c2ccc(Br)cc2)[C@H]1C(=O)N1CCOC1=O | – | inconclusive: 39.8 µM [inhibitor, single point]
O=C(/C=C/c1ccccc1)NC(=S)Nc1ccccc1O | inactive: 43.4% | –
COC(=O)c1ccc(CC2(C)C(=O)Nc3ccc(-c4cccc(C(F)(F)F)c4)cc32)o1 (configuration not stated) | – | inconclusive: 39.8 µM [inhibitor, single point]

Structure (SMILES) | activity change, negative = inhibition | Potency
N#Cc1ccc(-c2ccc(Cl)cc2)nc1Oc1ccc(F)cc1 | – | inconclusive: 17.8 µM [inhibitor, single point]
Nc1ccc2nc[nH]c2c1 | – | inconclusive: 7.52 µM [inhibitor, partial curve, poor fit]
CC1=CC(C)(C)Nc2ccc(OC(=O)CN3C(=O)c4cccc5cccc(c45)C3=O)cc21 | – | inconclusive: 25.1 µM [inhibitor, partial curve]
COc1ccc(NC(=O)C2Cc3c(-c4ccc(Cl)cc4)ccnc3O2)cn1 (configuration not stated) | – | inconclusive: 25.1 µM [inhibitor, single point]
O=C(NC1CCCCC1)C(c1cccnc1)N(C(=O)CCl)c1cccc(Cl)c1 (configuration not stated) | – | active: 20 µM
O=S(=O)(Nc1nc2ccccc2nc1Nc1cccc(S(=O)(=O)N2CCCCC2)c1)c1ccccc1 | – | inconclusive: 28.2 µM [inhibitor, single point]
COc1ccc(-c2coc3c(C(=O)NC(C)C)cccc23)c(C)c1 | – | inconclusive: 31.6 µM [inhibitor, single point]
COc1ccc(/C=N/NC(=S)N[C@H]2CC3CCC2C3)cc1 (some centres not stated) | inactive: 6.67% | –
O=C(NNC(=O)c1ccccc1OCc1ccccc1)c1ccccc1O | – | inconclusive: 5.62 µM [inhibitor, partial curve]
C[C@@H]1CN([C@@H](C)CO)C(=O)c2cc(NC(=O)C3CC3)ccc2O[C@@H]1CN(C)Cc1ccc(Cl)c(Cl)c1 | – | inconclusive: 39.8 µM [inhibitor, single point]
CC(C)(C)c1ccc(O)c(O)c1 | – | active: 39.8 µM
CCCc1nc2cc(C)c(Br)c(C)n2c1Cc1ccsc1 | inactive: 15.2% | –
C=CC[C@@H](CC(=O)OC(C)(C)C)C(=O)OC[C@@H]1CCCN1C(=O)[C@@H](CC=C)CC(=O)N[C@@H](CO)Cc1ccccc1 | inactive: -15.3% | –
O=C(Nc1cccnc1)/C(N=Nc1c(Cl)cccc1Cl)=C(\O)c1ccccc1 | – | inconclusive: 8.91 µM [inhibitor, partial curve, poor fit]
Cc1cccc(NC(=O)C2CCN(S(=O)(=O)c3c(C)c(C)cc(C)c3C)CC2)n1 | – | inconclusive: 39.8 µM [inhibitor, single point]
CCc1ccc(NC(=O)COc2ccc(/C=C(/C#N)c3nc4ccccc4[nH]3)cc2OC)cc1 | – | active: 4.47 µM
Cc1ccc(OCCCCN2CCCC(C)C2)c([N+](=O)[O-])c1 (configuration not stated) | inactive: -19% | –
CCOc1cc(/C=C2/C(=O)ON=C2C)ccc1OCc1ccccc1F | – | inconclusive: 35.5 µM [inhibitor, single point]
CC(=O)Nc1cccc(-c2ccnc3c2CC(C(=O)Nc2ccc(F)c(Cl)c2)O3)c1 (configuration not stated) | – | inconclusive: 31.6 µM [inhibitor, single point]
CCOc1cccc2sc(Nc3nc4ccc(NC(C)=O)cc4s3)nc12 | – | inconclusive: 39.8 µM [inhibitor, single point]
COc1ccc(-c2cc(NC=O)c3ncc(-c4cccc(OC)c4)n3c2)cc1 | – | inconclusive: 14.1 µM [inhibitor, single point]
CC1=CC(C)(C)NC(=S)N1c1ccc(C)cc1 | inactive: 0.101% | –
CC(C)Cn1c(-c2ccco2)n[nH]c1=S | inactive: 6.29% | –

Structure (SMILES) | activity change, negative = inhibition | Potency
NC[C@@H]1O[C@H](C23CC4CC(CC(C4)C2)C3)Cc2c1ccc(O)c2O | – | inconclusive: 31.6 µM [inhibitor, single point]
O=c1nc(N/N=C/c2ccccn2)cn[nH]1 | – | active: 6.31 µM
CCCC(=O)NC(c1ccccc1OC)c1ccc2cccnc2c1O (configuration not stated) | – | inconclusive: 7.52 µM [inhibitor, full curve, poor fit]
Cc1cccc(N2CCN(C(=O)CCC(=O)N3CC(C)Oc4ccccc43)CC2)c1C (configuration not stated) | – | inconclusive: 9.47 µM [inhibitor, partial curve, poor fit]
Cc1nc(-c2ccccc2)sc1-c1nc(-c2cccnc2)ncc1S(=O)(=O)c1ccccc1 | inactive: -13% | –
Cc1cc(OCC(=O)N2CCc3ccccc3C2)c2c(-c3ccccc3)cc(=O)oc2c1 | – | inconclusive: 20 µM [inhibitor, partial curve, poor fit]
FC(F)(F)c1ccccc1/C=N/n1c(COc2ccccc2)n[nH]c1=S | inactive: 0.0539% | –
COc1ccccc1C(=O)NCc1ccc(-c2nc3ccccc3s2)cc1 | – | inconclusive: 6.31 µM [inhibitor, partial curve, poor fit]
CCC(=O)Nc1cc(NC(=O)CSc2ncc(-c3ccc(F)cc3)n2Cc2ccco2)ccc1C | inactive: 83.3% | –
CCN(CC)c1ccc(-c2nn3c(-c4ccccc4OC)nnc3s2)cc1 | – | inconclusive: 6.31 µM [inhibitor, partial curve, poor fit]
C=CCNc1nc(NCc2ccc(NC(C)=O)cc2)c2sc(-c3ccccc3)cc2n1 | – | inconclusive: 39.8 µM [inhibitor, single point]
COCCCNC(=O)c1c(NC(=O)c2nc(S(C)(=O)=O)ncc2Cl)sc2c1CCCC2 | inactive: 27.6% | –
Cc1cccc(C(=O)N(CCc2ccccc2)Cc2ccccc2)c1[N+](=O)[O-] | – | inconclusive: 39.8 µM [inhibitor, partial curve, poor fit]
COc1ccc2c(c1)-c1c(ssc1=S)C(C)(C)N2S(=O)(=O)c1ccc(C)cc1 | inactive: -17.2% | –
CCCc1nc2oc3cc(OC)ccc3c(=O)c2c(=O)n1CCc1ccccc1 | – | inconclusive: 15 µM [inhibitor, partial curve, poor fit]
Cc1cc(C)cc(NC(=O)/C=C/c2ccc([N+](=O)[O-])s2)c1 | – | inconclusive: 5.01 µM [inhibitor, partial curve]
Cc1ccc(C)c(S(=O)(=O)NCc2cccnc2)c1 | inactive: -0.0207% | –
O=C(N/N=C/c1ccc([N+](=O)[O-])o1)c1ccc(NS(=O)(=O)c2cccs2)cc1 | – | inconclusive: 5.01 µM [inhibitor, partial curve, poor fit]
COc1ccc(-c2[nH]c(-c3ccc(C)cc3)nc2SCC(=O)NC2CCCC2)cc1 | – | inconclusive: 37.7 µM [inhibitor, single point]
COc1ccc(OC)c(NC(=O)c2c(NCc3ccc(C)o3)sc3c2CCC(C)C3)c1 (configuration not stated) | – | inconclusive: 39.8 µM [inhibitor, single point]
O=C(Nc1ccc(OC(F)F)cc1)Nc1cccc(C(F)(F)F)c1 | – | inconclusive: 20 µM [inhibitor, single point]
